Our source for the relative cell viability values is the supplement of paper PMC12355420.

Molecules are shown by their SMILES. Structures can show the parent of a compound that is named as a salt. This is one part of the list. Most values come without repeats; read them as rough.
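Note: primary screen of an FDA-approved drug library in HeLa reporter cells in 96-well format, CellMask signal normalized to DMSO-treated wells set as 1, under 0.5 deemed highly cytotoxic.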

The test deals with HeLa VPS33A reporter cells. In words: relative cell viability (CellMask signal) vs DMSO (fraction of DMSO); HeLa model of a glycosaminoglycan (GAG) storage disease; KI is knock-in and KO knock-out; SDC1 is syndecan 1; higher = less cytotoxic. The note with it: 50 µM; 24 h.
Regarding `CN1CCC(COc2cnc(-c3cccc(Cn4nc(-c5cccc(C#N)c5)ccc4=O)c3)nc2)CC1`, the relative cell viability was determined as 0.00442.
In turn, `C=CC(=O)Nc1cc(Nc2nccc(-c3cn(C)c4ccccc34)n2)c(OC)cc1N(C)CCN(C)C` had a relative cell viability of 0.00443.
In turn, `N#Cc1ccc2[nH]cc(CCCCN3CCN(c4ccc5oc(C(N)=O)cc5c4)CC3)c2c1` [Vilazodone] displayed a relative cell viability of 0.191.
To `Cc1ccc(Sc2ccccc2N2CCNCC2)c(C)c1` belongs 0.0029; to `COC(=O)Nc1nc2cc(Sc3ccccc3)ccc2[nH]1` [Fenbendazole], 0.202; to `CCCCCCCCCCCCCCCCCCOP(=O)([O-])OC1CC[N+](C)(C)CC1` [Perifosine], 0.00554.
As for `C=C1/C(=C\C=C2/CCC[C@]3(C)[C@@H]([C@H](C)/C=C/[C@@H](O)C4CC4)CC[C@@H]23)C[C@@H](O)C[C@@H]1O` [Calcipotriol], the relative cell viability was found to be 0.00516.
To `COc1cc2nc(N3CCN(C(=O)c4ccco4)CC3)nc(N)c2cc1OC` [Prazosin HCl] belongs 0.0051; to `CC[C@H](C)C[C@H](C)CCCCCCCCC(=O)N[C@H]1C[C@@H](O)[C@@H](NCCN)NC(=O)[C@@H]2[C@@H](O)CCN2C(=O)[C@H]([C@H](O)CCN)NC(=O)[C@H]([C@H](O)[C@@H](O)c2ccc(O)cc2)NC(=O)[C@@H]2C[C@@H](O)CN2C(=O)[C@H]([C@@H](C)O)NC1=O` [Caspofungin], 0.0135.
Compound `CCc1cc2c(cc1CC)CC(NC[C@H](O)c1ccc(O)c3[nH]c(=O)ccc13)C2` [Indacaterol] had a relative cell viability of 0.00371.
`COc1cc(OC)c(/C=C/S(=O)(=O)Cc2ccc(OC)c(NCC(=O)O)c2)c(OC)c1` had a relative cell viability of 0.289.
`CCCCCCCCc1ccc(CCC(N)(CO)CO)cc1` [Fingolimod (FTY720)]: the relative cell viability worked out at 0.00612.
Consider `Cc1coc2c1C(=O)C(=O)c1c-2ccc2c(C)cccc12` [Tanshinone I], for which the relative cell viability is 0.0331.
Regarding `CN1CCC[C@@H]1CCO[C@](C)(c1ccccc1)c1ccc(Cl)cc1` [Clemastine Fumarate], the relative cell viability amounted to 0.0125.
On to `CN(C)[C@@H](CCOc1cccc2ccccc12)c1ccccc1` [Dapoxetine HCl], for which the relative cell viability came out at 0.00507.
To `COc1ccccc1OCCNCC(O)COc1cccc2[nH]c3ccccc3c12` (stereo unspecified) [Carvedilol] belongs 0.00851.
